# Measured values: the supplement of paper PMC8728848
# The other results are listed elsewhere or left out.
# B1: ASAL (Allium sativum), P83886 (protein)
# chain: MGRTTSSPKAMMRIATVAAILTILASTCMARNVLTNGEGLYAGQSLDVEQYKFIMQDDCNLVLYEYSTPIWASNTGVTGKNGCRAVMQRDGNFVVYDVNGRPVWASNSVRGNGNYILVLQKDRNVVIYGSDIWSTGTYRRSVGGAVVMAMNGTVDGGSVIGPVVVNQNVTAAIRKVGTGAA
# Experiments:
# Assay in all cases: glycan array binding signal (z-score within array); higher = stronger binding
# Conditions in all cases: glycan notation: IUPAC condensed, linker removed
# [1] = biological target: Fuc(a1-2)Gal
# Summary of the method: (§1)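 Glycan array data were curated from 3228 arrays in the Consortium for Functional Glycomics database and kept only where the protein sequence was available. Glycan names were converted to IUPAC-condensed notation, and columns mapping to the same glycan were averaged. The binding signal is a within-array Z-score, averaged across arrays of the same protein sequence at different concentrations or buffers and across linkers. Negative Z-scores can be read as non-binding.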
# [2] = biological target: Fuc(a1-2)Gal(b1-3)GalNAc
# Summary of the method: as §1
# [3] = biological target: Fuc(a1-2)Gal(b1-3)GalNAc(a1-3)[Fuc(a1-2)]Gal(b1-4)Glc
# Summary of the method: as §1
# [4] = biological target: Fuc(a1-2)Gal(b1-3)GalNAc(a1-3)[Fuc(a1-2)]Gal(b1-4)GlcNAc
# Summary of the method: as §1
# [5] = biological target: Fuc(a1-2)Gal(b1-3)GalNAc(b1-3)Gal
# Summary of the method: as §1
# [6] = biological target: Fuc(a1-2)Gal(b1-3)GalNAc(b1-3)Gal(a1-4)Gal(b1-4)Glc
# Summary of the method: as §1
# [7] = biological target: Fuc(a1-2)Gal(b1-3)GalNAc(b1-4)[Neu5Ac(a2-3)]Gal(b1-4)Glc
# Summary of the method: as §1
# [8] = biological target: Fuc(a1-2)Gal(b1-3)GlcNAc
# Summary of the method: as §1
# [9] = biological target: Fuc(a1-2)Gal(b1-3)GlcNAc(b1-2)Man(a1-3)[Fuc(a1-2)Gal(b1-3)GlcNAc(b1-2)Man(a1-6)]Man(b1-4)GlcNAc(b1-4)GlcNAc
# Summary of the method: as §1
# [10] = biological target: Fuc(a1-2)Gal(b1-3)GlcNAc(b1-2)Man(a1-3)[Fuc(a1-2)Gal(b1-3)GlcNAc(b1-2)Man(a1-6)]Man(b1-4)GlcNAc(b1-4)[Fuc(a1-6)]GlcNAc
# Summary of the method: as §1
# [11] = biological target: Fuc(a1-2)Gal(b1-3)GlcNAc(b1-3)Gal(b1-4)Glc
# Summary of the method: as §1
# [12] = biological target: Fuc(a1-2)Gal(b1-3)GlcNAc(b1-3)GalNAc
# Summary of the method: as §1
# [13] = biological target: Fuc(a1-2)Gal(b1-3)GlcNAc(b1-3)[Fuc(a1-3)[Gal(b1-4)]GlcNAc(b1-6)]Gal(b1-4)Glc
# Summary of the method: as §1
# [14] = biological target: Fuc(a1-2)Gal(b1-3)GlcNAc(b1-3)[Gal(b1-4)GlcNAc(b1-6)]Gal(b1-4)Glc
# Summary of the method: as §1
# [15] = biological target: Fuc(a1-2)Gal(b1-3)[Fuc(a1-4)]GlcNAc
# Summary of the method: as §1
# [16] = biological target: Fuc(a1-2)Gal(b1-3)[Fuc(a1-4)]GlcNAc(b1-2)Man(a1-3)[Fuc(a1-2)Gal(b1-3)[Fuc(a1-4)]GlcNAc(b1-2)Man(a1-6)]Man(b1-4)GlcNAc(b1-4)GlcNAc
# Summary of the method: as §1
# [17] = biological target: Fuc(a1-2)Gal(b1-3)[Fuc(a1-4)]GlcNAc(b1-3)[Fuc(a1-3)[Gal(b1-4)]GlcNAc(b1-6)]Gal(b1-4)Glc
# Summary of the method: as §1
# [18] = biological target: Fuc(a1-2)Gal(b1-3)[Fuc(a1-4)]GlcNAc(b1-3)[Gal(b1-4)GlcNAc(b1-6)]Gal(b1-4)Glc
# Summary of the method: as §1
# [19] = biological target: Fuc(a1-2)Gal(b1-4)Glc
# Summary of the method: as §1
# [20] = biological target: Fuc(a1-2)Gal(b1-4)Glc6S
# Summary of the method: as §1
# [21] = biological target: Fuc(a1-2)Gal(b1-4)GlcNAc
# Summary of the method: as §1
# [22] = biological target: Fuc(a1-2)Gal(b1-4)GlcNAc(b1-2)Man(a1-3)[Fuc(a1-2)Gal(b1-4)GlcNAc(b1-2)Man(a1-6)]Man(b1-4)GlcNAc(b1-4)GlcNAc
# Summary of the method: as §1
# [23] = biological target: Fuc(a1-2)Gal(b1-4)GlcNAc(b1-2)Man(a1-3)[Fuc(a1-2)Gal(b1-4)GlcNAc(b1-2)Man(a1-6)]Man(b1-4)GlcNAc(b1-4)[Fuc(a1-6)]GlcNAc
# Summary of the method: as §1
# [24] = biological target: Fuc(a1-2)Gal(b1-4)GlcNAc(b1-2)[Fuc(a1-2)Gal(b1-4)GlcNAc(b1-4)]Man(a1-3)[Fuc(a1-2)Gal(b1-4)GlcNAc(b1-2)Man(a1-6)]Man(b1-4)GlcNAc(b1-4)GlcNAc
# Summary of the method: as §1
# [25] = biological target: Fuc(a1-2)Gal(b1-4)GlcNAc(b1-3)Gal(b1-4)GlcNAc
# Summary of the method: as §1
# [26] = biological target: Fuc(a1-2)Gal(b1-4)GlcNAc(b1-3)Gal(b1-4)GlcNAc(b1-3)Gal(b1-4)GlcNAc
# Summary of the method: as §1
# [27] = biological target: Fuc(a1-2)Gal(b1-4)GlcNAc(b1-3)GalNAc
# Summary of the method: as §1
# [28] = biological target: Fuc(a1-2)Gal(b1-4)GlcNAc6S
# Summary of the method: as §1
# [29] = biological target: Fuc(a1-2)Gal(b1-4)[Fuc(a1-3)]GlcNAc
# Summary of the method: as §1
# [30] = biological target: Fuc(a1-2)Gal(b1-4)[Fuc(a1-3)]GlcNAc(b1-2)Man(a1-3)[Fuc(a1-2)Gal(b1-4)[Fuc(a1-3)]GlcNAc(b1-2)Man(a1-6)]Man(b1-4)GlcNAc(b1-4)GlcNAc
# Summary of the method: as §1
# [31] = biological target: Fuc(a1-2)Gal(b1-4)[Fuc(a1-3)]GlcNAc(b1-2)[Fuc(a1-2)Gal(b1-4)[Fuc(a1-3)]GlcNAc(b1-4)]Man(a1-3)[Fuc(a1-2)Gal(b1-4)[Fuc(a1-3)]GlcNAc(b1-2)Man(a1-6)]Man(b1-4)GlcNAc(b1-4)GlcNAc
# Summary of the method: as §1
# [32] = biological target: Fuc(a1-2)Gal(b1-4)[Fuc(a1-3)]GlcNAc(b1-3)Gal(b1-4)[Fuc(a1-3)]GlcNAc
# Summary of the method: as §1
# [33] = biological target: Fuc(a1-2)Gal(b1-4)[Fuc(a1-3)]GlcNAc(b1-3)Gal(b1-4)[Fuc(a1-3)]GlcNAc(b1-3)Gal(b1-4)[Fuc(a1-3)]GlcNAc
# Summary of the method: as §1
# [34] = biological target: Fuc(a1-2)Gal(b1-4)[Fuc(a1-3)]GlcNAc(b1-3)GalNAc
# Summary of the method: as §1
# [35] = biological target: Fuc(a1-2)Gal6S(b1-4)Glc
# Summary of the method: as §1
# [36] = biological target: Fuc(a1-2)Gal6S(b1-4)Glc6S
# Summary of the method: as §1
# [37] = biological target: Fuc(a1-2)Gal6S(b1-4)GlcNAc
# Summary of the method: as §1
# [38] = biological target: Fuc(a1-2)[Gal(a1-3)]Gal
# Summary of the method: as §1
# [39] = biological target: Fuc(a1-2)[Gal(a1-3)]Gal(b1-3)GlcNAc
# Summary of the method: as §1
# [40] = biological target: Fuc(a1-2)[Gal(a1-3)]Gal(b1-3)GlcNAc(b1-2)Man(a1-3)[Fuc(a1-2)[Gal(a1-3)]Gal(b1-3)GlcNAc(b1-2)Man(a1-6)]Man(b1-4)GlcNAc(b1-4)GlcNAc
# Summary of the method: as §1
# [41] = biological target: Fuc(a1-2)[Gal(a1-3)]Gal(b1-3)GlcNAc(b1-3)GalNAc
# Summary of the method: as §1
# [42] = biological target: Fuc(a1-2)[Gal(a1-3)]Gal(b1-4)Glc
# Summary of the method: as §1
# [43] = biological target: Fuc(a1-2)[Gal(a1-3)]Gal(b1-4)GlcNAc
# Summary of the method: as §1
# [44] = biological target: Fuc(a1-2)[Gal(a1-3)]Gal(b1-4)GlcNAc(b1-2)Man(a1-3)[Fuc(a1-2)[Gal(a1-3)]Gal(b1-4)GlcNAc(b1-2)Man(a1-6)]Man(b1-4)GlcNAc(b1-4)GlcNAc
# Summary of the method: as §1
# [45] = biological target: Fuc(a1-2)[Gal(a1-3)]Gal(b1-4)GlcNAc(b1-2)Man(a1-3)[Fuc(a1-2)[Gal(a1-3)]Gal(b1-4)GlcNAc(b1-2)Man(a1-6)]Man(b1-4)GlcNAc(b1-4)[Fuc(a1-6)]GlcNAc
# Summary of the method: as §1
binder,measurement,setting,value
B1,glycan array binding signal (z-score),[1],-0.276
same,glycan array binding signal (z-score),[2],-0.234
same,glycan array binding signal (z-score),[3],-0.231
same,glycan array binding signal (z-score),[4],-0.271
same,glycan array binding signal (z-score),[5],-0.278
same,glycan array binding signal (z-score),[6],-0.251
same,glycan array binding signal (z-score),[7],-0.267
same,glycan array binding signal (z-score),[8],-0.289
same,glycan array binding signal (z-score),[9],-0.102
same,glycan array binding signal (z-score),[10],0.067
same,glycan array binding signal (z-score),[11],-0.274
same,glycan array binding signal (z-score),[12],-0.269
same,glycan array binding signal (z-score),[13],-0.241
same,glycan array binding signal (z-score),[14],-0.228
same,glycan array binding signal (z-score),[15],-0.241
same,glycan array binding signal (z-score),[16],-0.211
same,glycan array binding signal (z-score),[17],-0.249
same,glycan array binding signal (z-score),[18],-0.204
same,glycan array binding signal (z-score),[19],-0.221
same,glycan array binding signal (z-score),[20],-0.153
same,glycan array binding signal (z-score),[21],-0.236
same,glycan array binding signal (z-score),[22],-0.231
same,glycan array binding signal (z-score),[23],-0.22
same,glycan array binding signal (z-score),[24],-0.079
same,glycan array binding signal (z-score),[25],-0.272
same,glycan array binding signal (z-score),[26],-0.25
same,glycan array binding signal (z-score),[27],-0.262
same,glycan array binding signal (z-score),[28],-0.272
same,glycan array binding signal (z-score),[29],-0.264
same,glycan array binding signal (z-score),[30],-0.19
same,glycan array binding signal (z-score),[31],-0.25
same,glycan array binding signal (z-score),[32],-0.24
same,glycan array binding signal (z-score),[33],-0.277
same,glycan array binding signal (z-score),[34],-0.166
same,glycan array binding signal (z-score),[35],-0.234
same,glycan array binding signal (z-score),[36],-0.175
same,glycan array binding signal (z-score),[37],-0.247
same,glycan array binding signal (z-score),[38],-0.272
same,glycan array binding signal (z-score),[39],-0.287
same,glycan array binding signal (z-score),[40],-0.202
same,glycan array binding signal (z-score),[41],-0.274
same,glycan array binding signal (z-score),[42],-0.229
same,glycan array binding signal (z-score),[43],-0.269
same,glycan array binding signal (z-score),[44],-0.216
same,glycan array binding signal (z-score),[45],-0.029
